Measured values: the supplement of paper PMC11417369
± gives the standard deviation of the averaged measurements. The list shows a part of the results.

These sequences were tested on PfAP2-I AP2 domain 3 (GST-tagged) (assay: gcPBM binding intensity (ln(normalized median fluorescence intensity)); higher = stronger DNA binding).
Summary of the method: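 Using an Agilent 4 × 180k array, primer-extended double-stranded 36-bp intergenic genomic probes and negative controls were exposed for 1 h to GST-fused P. falciparum DNA-binding domains expressed in E. coli. Binding was carried out in 1× PBS with 1% milk, 0.2 mg/ml BSA, 0.5% salmon testes DNA and 0.03% Triton X-100, and protein was detected with Alexa488 anti-GST antibody and a 488 nm scan. Binding intensity is the highest Masliner-normalised natural-log median intensity across replicate spots of either probe orientation.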

In order of rising “gcPBM binding intensity (ln)” value:
1. TATTTACAACAAATTTAATTATTTTTAACTTATAAA [GTGCAC_negctrl_site259]  7.18 ± 0.55
2. TTTTTTCAAATTATTCGATATGTAAAAAAATAAAAT [GTGCAC_negctrl_site241]  7.58 ± 0.5
3. AAAAAAAAATAAAAAAGTACATTCATTTTATAAGAT [XGTACX_site3507]  7.66 ± 0.45
4. ATAAATACAGATATTACACACTTCTTATTCTAAGAA [CACACA_site5640]  7.67 ± 0.47
5. AATGTAATATAAATATGTACATATAAACTATATATA [XGTACX_site6871]  7.68 ± 0.41
6. TATACAGGAATATTTTTACACACTAATAATTATAAA [CACACA_site8477]  7.7 ± 0.38
7. AAATTGTGTGAAATATATTAATATTATTATTATTAT [TGCATGCA_negctrl_site189]  7.74 ± 0.47
8. TTATATTATATATATATTATATATATGTATGCATAA [TGCATGCA_negctrl_site481]  7.75 ± 0.34
9. ACAAATACTAACAACGCATGTAAGCCTACAATAAAT [TGCATGCA_site551]  7.78 ± 0.57
10. CATGTCAAAATTATACGTACATATATAAGTTCCATT [XGTACX_site6331]  7.79 ± 0.46
11. GATTATTATTATAAGGGTACAAATATTTAATAAAAA [XGTACX_site7144]  7.94 ± 0.61
12. TACCATTATTTTAAGTGTACATACTAATTTATATAT [XGTACX_site6548]  7.96 ± 0.4
13. TTTTACCACTAAAAATGTACAAAAAAAAAAAAAAAA [XGTACX_site4226]  8.01 ± 0.77
14. ATCCTCTTTTTAAGTTGTACAGGGTCGAAAAAAAAA [XGTACX_site6852]  8.12 ± 0.32
15. TATTTTATATAAAGGTGTACTTATACAAAAATATAT [XGTACX_site7435]  8.14 ± 0.28
16. AAATATTTGTGTGGTTGTACTATAATGATAAAAATA [XGTACX_site7703]  8.14 ± 0.42
17. ACTTATGATTTATTTTGTACATATATACTATTCCTG [XGTACX_site5275]  8.17 ± 0.71
18. TTTTTTTTTTTTGAGTGTACAAGATTGTTGTTCCAA [XGTACX_site6120]  8.21 ± 0.85
19. GTTTTAAAACAAATATGTACACATAATATAGGAAAG [XGTACX_site1803]  8.29 ± 0.5
20. ATTATATATATATATATATATATATATATATTATAT [CACACA_negctrl_site234]  8.37 ± 0.092
21. CCTTGCATTTATTATACACACACAAAAAAATATATA [CACACA_site7964]  8.73 ± 0.43
22. AGATAGCTATTAAAAAGTACAAAAAAATATATATAT [XGTACX_site6289]  8.87 ± 0.057
23. CATACATACAAACACACACACATATATATATATATA [CACACA_site43]  9.21 ± 0.49
24. GGTTTGAATTTTTAAGTGCATATAACATAAATGAAA  9.86 ± 0.23
